From PubChem BioAssay AID686971 (National Center for Advancing Translational Sciences (NCATS), 2013)
About 7,500 (2.1%) of roughly 360,000 compounds were called active. The shares of active, inactive and inconclusive entries below differ from those in the screen. Calls follow the shape of the dose curve; as a rule, active = well fitted cell-killing curve with a large enough effect; inconclusive = small, poorly fitted or top-dose-only effect, or effect the other way, or another doubt; inactive = no such curve, though single readings can be large or run the other way. No potency is given beside an inconclusive call; the fits are too rough.

Experiment: qHTS for induction of synthetic lethality in tumor cells producing 2HG: qHTS for the HT-1080-IDH1KD cell line;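 as to activity, negative = toxicity: 0% = DMSO wells and -100% = cell-free medium wells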
Conditions: HT-1080 IDH1 knockdown viability, ATP luminescence, 48 h; activity, negative = toxicity: at 46.1 µM (top of the series) unless noted
Procedure, shortened: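 After a 2 h attachment period, IDH1KD HT-1080 cells took pin-transferred compound for 48 h at 37 °C; ATP-based luminescence after 10 min room-temperature reagent incubation reported viability.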
Potency is read from the fitted curve at half-maximal effect; tags tell the direction and shape of the fitted curve.

Q: Which “activity, negative = toxicity” value does the source give for CCCNC(=O)N(C)C[C@H]1Oc2ncc(C#CCc3ccccc3)cc2C(=O)N([C@H](C)CO)C[C@H]1C here?
A: Its value is inactive: -3.11%.

Q: For CCc1sc(C(=O)Nc2cccc(C(C)=O)c2)cc1C, which “activity, negative = toxicity” value is on record?
A: Its value is inactive: 2.54%.

Q: With CCN(Cc1ccccc1)S(=O)(=O)c1ccc(C(=O)N(CCCN(C)C)c2nc3cc(OC)ccc3s2)cc1 as the compound, how does the Potency read?
A: Its Potency is inconclusive [cytotoxic, single point].

Q: For CC(=O)c1coc2c1cc(O)c1ccccc12, which “activity, negative = toxicity” value is on record?
A: The value was inactive: -1.89%.

Q: For Cc1ccc(-c2cc(-c3ccccc3Cl)[nH]n2)c(O)c1, which Potency is on record?
A: The Potency was active: 11.2 µM.

Q: Which Potency does the source give for COc1ccc(C(=O)NCCNC(=O)c2cc(OCC(F)(F)F)ccc2OCC(F)(F)F)cc1 here?
A: The Potency was inconclusive [cytotoxic, partial curve].

Q: Which “activity, negative = toxicity” value does the source give for C=CCn1c(Cc2cccs2)nnc1SCC(=O)Nc1ccc(C(=O)OCC)cc1 here?
A: Its value is inactive: -7.89%.

Q: For O=c1cc(CSc2nnc(Nc3ccccc3)s2)nc2sccn12, which Potency is on record?
A: Its Potency is inconclusive [cytotoxic, partial curve].

Q: Which Potency does the source give for O=[N+]([O-])c1ccccc1N/N=C/c1c[nH]c2ccccc12 here?
A: The Potency was inconclusive [cytotoxic, partial curve].

Q: Which “activity, negative = toxicity” value does the source give for CCN(CC)C(=O)c1[nH]cnc1C(=O)Nc1ccc(C)cc1 here?
A: Its value is inactive: 5.11%.

Q: Which Potency does the source give for O=C(Nc1ccccc1)Nc1csc2ccccc12 here?
A: Its Potency is inconclusive [cytotoxic, single point].

Q: For C=CCn1c(SCC(=O)Nc2sccc2C(N)=O)nc2ccccc2c1=O, which Potency is on record?
A: Its Potency is inconclusive [cytotoxic, single point].

Q: Which Potency does the source give for COC(=O)c1cccc(NC(=S)NCCC2=CCCCC2)c1 here?
A: The Potency was active: 20.6 µM.

Q: Which “activity, negative = toxicity” value does the source give for COC(=O)c1ccc(NC(=O)C(=O)c2c[nH]c3ccccc23)cc1 here?
A: Its value is inactive: 7.19%.

Q: Which Potency does the source give for Cc1ccccc1NC(=O)CSc1n[nH]c(-c2ccccn2)n1 here?
A: The Potency was inconclusive [cytotoxic, single point].

Q: Which Potency does the source give for N#Cc1ccc(-c2cccs2)nc1SCc1cccnc1 here?
A: The Potency was inconclusive [cytotoxic, full curve].

Q: For Cc1oc(-c2ccc(Cl)cc2)nc1CN1CCC(C(=O)NCCCN2CCCC(C)C2)CC1 (centres undefined), which Potency is on record?
A: Its Potency is active: 16.4 µM.

Q: With O=C(Cc1csc(-c2ccc(F)cc2)n1)Nc1cccc(S(=O)(=O)NC2=NCCC2)c1 as the compound, how does the “activity, negative = toxicity” value read?
A: The value was inactive: -6.1%.

Q: For CCc1ccc(/C=C2\SC(=S)N(CCCC(=O)Nc3ccccc3C(=O)O)C2=O)cc1, which Potency is on record?
A: Its Potency is inconclusive [cytotoxic, single point].

Q: With CCN1CCN(c2ccc(S(=O)(=O)N3CCCCC3)cc2NC(=O)Cc2ccc(Cl)c(Cl)c2)CC1 as the compound, how does the Potency read?
A: The Potency was inconclusive [cytotoxic, single point].

Q: Which “activity, negative = toxicity” value does the source give for Cc1ccc(NC(=O)COc2ccc3oc4c(c3c2)CCCC4)nc1 here?
A: The value was inactive: 7.12%.

Q: Which Potency does the source give for CCOC(=O)CSC1=C(C#N)C(c2ccc(C)s2)CC(=O)N1 (centres undefined) here?
A: Its Potency is active: 1.78 µM.

Q: Which Potency does the source give for COc1ccc(CCNc2cc(N3CCN(C(=O)c4ccccc4F)CC3)ccc2[N+](=O)[O-])cc1OC here?
A: The Potency was inconclusive [cytotoxic, partial curve, poor fit].

Q: With Cc1noc(C)c1COc1ccccc1C(=O)NC(C)c1ccc(Cl)cc1 (centres undefined) as the compound, how does the “activity, negative = toxicity” value read?
A: Its value is inactive: 2.96%.

Q: Which “activity, negative = toxicity” value does the source give for Cc1ccc(S(=O)(=O)c2c(N)n(CCCO)c3nc4ccccc4nc23)cc1 here?
A: The value was inactive: -1.25%.

Q: Which “activity, negative = toxicity” value does the source give for CC1CCCN(CCCNC(=O)C2CCC(CNS(=O)(=O)c3cccc4nsnc34)CC2)C1 (centres undefined) here?
A: Its value is inactive: -1.04%.

Q: For OCCN1CCN(c2ncnc3c2c(-c2ccccc2)cn3-c2ccc(Br)cc2)CC1, which Potency is on record?
A: Its Potency is active: 23.1 µM.

Q: Which “activity, negative = toxicity” value does the source give for CC(C)CN1C(=O)NC2(CCCc3ccccc32)C1=O (centres undefined) here?
A: Its value is inactive: 11.9%.

Q: With CCCCNC(=O)C1CCN(Cc2ccc(OCc3ccccc3)cc2)CC1 as the compound, how does the Potency read?
A: Its Potency is inconclusive [cytotoxic, partial curve].

Q: Which “activity, negative = toxicity” value does the source give for CCc1cccc(C)c1NC(=O)CN1C(=O)NC(CCc2ccccc2)C1=O (centres undefined) here?
A: The value was inactive: -0.124%.

Q: For COc1ccc(C(=O)NC(=S)Nc2cccc(S(=O)(=O)N3CCOCC3)c2)cc1, which Potency is on record?
A: Its Potency is active: 13 µM.

Q: With C=CCNC(=S)Nc1cccc2ccccc12 as the compound, how does the Potency read?
A: Its Potency is inconclusive [cytotoxic, single point].

Q: With COCc1ccc(CN2CCC(C(=O)Nc3cccc(-c4cccc(Cl)c4)c3)CC2)o1 as the compound, how does the Potency read?
A: The Potency was active: 16.4 µM.

Q: With COc1ccc(CNC(=O)CN(C(=O)CCC(=O)Nc2nccs2)c2ccc3c(c2)OCO3)cc1 as the compound, how does the Potency read?
A: Its Potency is inconclusive [cytotoxic, partial curve].

Q: With N=c1n(N)c2ccccc2n1CC(=O)c1ccc(Br)cc1 as the compound, how does the Potency read?
A: Its Potency is inconclusive [cytotoxic, single point].

Q: For CC(C)(C)c1ccc(C(=O)Cn2cnnc2C#N)cc1, which Potency is on record?
A: The Potency was inconclusive [cytotoxic, partial curve].

Q: Which Potency does the source give for COc1ccc(-c2nc(CN(C)C(C)c3ccon3)c(C)o2)c(C)c1C (centres undefined) here?
A: The Potency was inconclusive [cytotoxic, single point].

Q: Which Potency does the source give for Nc1nonc1C(=O)NCCNCc1ccccc1OCc1ccccc1F here?
A: The Potency was inconclusive [cytotoxic, single point].

Q: For Cc1ccc(-n2nc3c(c2NC(=O)c2c(-c4ccccc4Cl)noc2C)CSC3)cc1, which Potency is on record?
A: Its Potency is inconclusive [cytotoxic, single point].

Q: With CCN(CC(=O)Nc1c(F)cccc1F)C(=O)CCC(=O)c1ccc(C)cc1 as the compound, how does the “activity, negative = toxicity” value read?
A: The value was inactive: 16.7%.

Q: Which Potency does the source give for O=C(NC(c1ccc(-c2ccccc2)cc1)c1cnccn1)C1CCN(CCOc2ccc(Cl)cc2Cl)CC1 (centres undefined) here?
A: The Potency was active: 14.6 µM.

Q: For COc1cccc(C(=O)Oc2ccccc2/C=C\C(=O)c2cc3ccccc3o2)c1, which Potency is on record?
A: The Potency was active: 20.6 µM.

Q: Which Potency does the source give for CCc1ccc(CNCc2ccc(OCC(O)CN(C)Cc3ccccc3)cc2)nc1 (centres undefined) here?
A: The Potency was inconclusive [cytotoxic, single point].

Q: For OCC1OC(n2cnc3c(NCCc4ccccc4)ncnc32)C(O)C1O (centres undefined), which Potency is on record?
A: Its Potency is inconclusive [cytotoxic, single point].

Q: Which Potency does the source give for O=C(N/N=C/c1cc(Cl)cc([N+](=O)[O-])c1O)c1cc(-c2ccccn2)nc2ccccc12 here?
A: The Potency was inconclusive [cytotoxic, single point].

Q: For Cc1cc2nc(C(C)(C)C)c(Cc3cccc(F)c3)n2c(C)c1Br, which Potency is on record?
A: Its Potency is inconclusive [cytotoxic, single point].

Q: With CCOc1ccc(NC(=O)C2CCCN(S(=O)(=O)c3ccc(-n4cnnn4)cc3)C2)cc1 (centres undefined) as the compound, how does the Potency read?
A: The Potency was inconclusive [cytotoxic, single point].

Q: Which “activity, negative = toxicity” value does the source give for Cc1ccc(C(=O)N[C@H](C(=O)Nc2ccc(F)cc2)C(C)C)cc1 here?
A: The value was inactive: 2.29%.

Q: For O=C(Cc1ccc2c(c1)OCCO2)N1CCN(S(=O)(=O)c2cccs2)CC1, which “activity, negative = toxicity” value is on record?
A: The value was inactive: 3.77%.

Q: For CCOC(=O)C1CCN(C(=O)c2ccc3c(c2)OCCO3)CC1, which “activity, negative = toxicity” value is on record?
A: The value was inactive: 3.49%.

Q: With O=C(CSc1nnc(COc2ccccc2)o1)Nc1ccc(F)cc1 as the compound, how does the “activity, negative = toxicity” value read?
A: The value was inactive: 1.89%.

Q: Which Potency does the source give for CCCCCn1c(=O)[nH]c2cc(C(=O)NCCN(CC)CC)ccc2c1=O here?
A: Its Potency is inconclusive [cytotoxic, single point].

Q: With CCOC(=O)N1CCN(C(=O)c2cccc(N3C(=O)NC4CC3(C)Oc3ccc(Cl)cc34)c2)CC1 (centres undefined) as the compound, how does the Potency read?
A: The Potency was active: 7.31 µM.

Q: With Cc1cccc(-c2noc(CN(C(=O)/C=C/c3ccccc3Cl)C(C)C)n2)c1 as the compound, how does the Potency read?
A: Its Potency is inconclusive [cytotoxic, single point].

Q: With CSc1cccc(NC(=S)N(Cc2ccc(C)cc2)Cc2cccnc2)c1 as the compound, how does the “activity, negative = toxicity” value read?
A: Its value is inactive: -7.48%.

Q: With NS(=O)(=O)c1ccc(N=Nc2c(O)[nH]c3ccc(Br)cc23)cc1 as the compound, how does the activity, negative = toxicity read?
A: The activity, negative = toxicity was inconclusive: -86%.

Q: Which Potency does the source give for CCC(=O)NC(c1ccc(C)cc1)c1ccc2cccnc2c1O (centres undefined) here?
A: Its Potency is inconclusive [cytotoxic, full curve].

Q: For CC(=O)Nc1ccc(/C=C/c2ccc3cccc([N+](=O)[O-])c3n2)cc1, which Potency is on record?
A: Its Potency is inconclusive [cytotoxic, partial curve, poor fit].

Q: For CCCCNC(=O)C1(C)CCCCCN1Cc1cc2ccccc2o1 (centres undefined), which Potency is on record?
A: The Potency was inconclusive [cytotoxic, single point].

Q: With CN1CCN(c2ccc(NC(=O)c3ccc(-c4ccc(Br)cc4)o3)cc2)CC1 as the compound, how does the Potency read?
A: The Potency was active: 23.1 µM.

Q: For COC(=O)N1C(=O)[C@](c2ccccc2)(C(C)C)N1C(=O)OC, which “activity, negative = toxicity” value is on record?
A: The value was inactive: -0.382%.

Q: With Cc1ccc(-c2nc3c(c(=O)c4ccccc4n3C)c(=O)n2Cc2ccco2)cc1 as the compound, how does the “activity, negative = toxicity” value read?
A: Its value is inactive: 3.1%.

Q: Which Potency does the source give for O=C(CSc1ccc(Cl)cc1)Nc1cccc(-c2nnc(-c3ccco3)o2)c1 here?
A: Its Potency is inconclusive [cytotoxic, single point].

Q: Which Potency does the source give for O=C(CSc1nc2cc(Cl)ccc2o1)NCCc1ccccc1 here?
A: Its Potency is inconclusive [cytotoxic, single point].

Q: Which Potency does the source give for CC(=O)Nc1cccc(C(=O)OC(C(=O)c2ccc(C)cc2)c2ccccc2)c1 (centres undefined) here?
A: Its Potency is inconclusive [cytotoxic, single point].

Q: For Fc1cccc(Cc2c(-c3ccc(Cl)cc3)nc3ccc(Br)cn23)c1, which “activity, negative = toxicity” value is on record?
A: The value was inactive: -0.022%.

Q: With COc1cccc(Cn2c(Cn3c(-c4cnccn4)nc4ccccc43)nc3ccccc32)c1 as the compound, how does the “activity, negative = toxicity” value read?
A: Its value is inactive: -27.8%.

Q: Which “activity, negative = toxicity” value does the source give for COc1cccc(/C=C2/C(=O)NN(c3ccc(F)cc3)C2=O)c1 here?
A: The value was inactive: -28.6%.

Q: Which “activity, negative = toxicity” value does the source give for COC(=O)CC(NC(=S)NC(=O)c1ccccc1)c1ccc(Br)cc1 (centres undefined) here?
A: The value was inactive: -0.472%.

Q: For NC(=O)CSc1oc(-c2ccc(F)cc2)nc1S(=O)(=O)c1ccccc1, which “activity, negative = toxicity” value is on record?
A: Its value is inactive: -17.3%.

Q: With COc1cccc(CC2(CO)CCCN(Cc3ccc(-c4ccco4)cc3)C2)c1 (centres undefined) as the compound, how does the Potency read?
A: The Potency was inconclusive [cytotoxic, single point].

Q: For CC(CCc1ccc(O)cc1)NCc1ccc(Br)cc1 (centres undefined), which Potency is on record?
A: The Potency was inconclusive [cytotoxic, partial curve].

Q: Which Potency does the source give for O=C1c2ccccc2C(=O)N1CC1c2ccccc2CCN1C(=O)CN1CCOCC1 (centres undefined) here?
A: Its Potency is inconclusive [rising, single point].

Q: Which Potency does the source give for COc1cc(-c2cc(NC=O)c3ncc(-c4ccccc4)n3c2)cc(OC)c1OC here?
A: Its Potency is inconclusive [cytotoxic, single point].
